About 15 (0.02%) of roughly 75,000 compounds were called active. The inconclusive results got no clear call from the source; some entries with a clear call stand among them for comparison. The call rests on the fitted dose curve; in most records, active means well fitted inhibition curve with a large enough effect in the main read-out, with a control signal flat (not every such curve was filed as active); inconclusive means small, poorly fitted or top-dose-only effect, or a change in a side signal; inactive means flat fitted curve, though single readings scatter. A potency beside an inconclusive call is a rough fit, not a confirmed value. “Side channel” marks fits to a control or component signal instead of the main read-out.
The molecules below were run against Caspase-7 (Homo sapiens) (UniProt P55210) (assay: qHTS Assay for Allosteric/Competitive Inhibitors of Caspase-7). Conditions: recombinant caspase-7, Ac-DEVD-AFC fluorescence rate; activity change, negative = inhibition: at 57.5 µM (top of the series) unless noted.
Potency means the concentration at half of the fitted maximal effect; tags describe the fitted curve by direction and shape or compound fluorescence and quenching.
Wherever activity change, negative = inhibition is given: % of control where 0% means no effect.

Sequence of UniProt P55210 (P55210 whole entry, looked up): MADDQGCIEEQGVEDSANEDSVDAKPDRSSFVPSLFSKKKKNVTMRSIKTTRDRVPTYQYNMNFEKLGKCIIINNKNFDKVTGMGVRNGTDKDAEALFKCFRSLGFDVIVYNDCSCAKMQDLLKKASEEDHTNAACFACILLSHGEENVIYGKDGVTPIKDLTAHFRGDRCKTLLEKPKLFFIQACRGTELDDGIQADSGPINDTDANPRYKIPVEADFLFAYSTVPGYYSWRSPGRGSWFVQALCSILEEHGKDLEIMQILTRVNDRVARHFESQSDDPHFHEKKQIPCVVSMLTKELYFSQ

Row | SMILES | activity change, negative = inhibition | Potency
1 | COC(=O)c1sc(NC(=O)c2cc3c(s2)CCCC3)nc1C | inactive: -0.582% | –
2 | O=C(COC(=O)c1cc(-c2cccs2)nc2ccccc12)NCc1ccco1 | – | inconclusive: 25.1 µM [fluorescent, side channel, partial curve]
3 | O=C(c1ccco1)N1CCN(C(=O)c2cc3c(s2)-c2ccccc2OC3)CC1 | – | inconclusive: 25.1 µM [inhibitor, partial curve]
4 | COCCn1nnnc1CN(Cc1cc2cc(OC)c(OC)cc2[nH]c1=O)C1CCCC1 | – | inconclusive: 12.6 µM [fluorescent, side channel, partial curve]
5 | O=c1c(-c2cccs2)nc2cnc(N3CCNCC3)nc2n1-c1ccccc1 | – | inconclusive: 3.98 µM [fluorescent, side channel, partial curve]
6 | Cc1cccc(-c2nnc(-c3ccc(N)cc3)o2)c1 | inactive: -0.301% | –
7 | COCCn1c(=O)c(-c2ccc(OC)cc2)nc2cnc(Oc3ccc(OC)cc3)nc21 | – | inconclusive: 20 µM [fluorescent, partial curve]
8 | COc1ccc(Oc2ncc3nc(-c4ccccc4)c(=O)n(C4CC4)c3n2)cc1 | – | inconclusive: 25.1 µM [inhibitor, single point]
9 | Nc1ncnc2c1ncn2[C@H]1O[C@@H](C(=O)OCCO)[C@@H](O)[C@H]1O | inactive: 1.68% [at 11.5 µM] | –
10 | CCn1nc(NC(=O)c2ccccn2)c2cc3cc(C)ccc3nc21 | – | inconclusive: 25.1 µM [fluorescent, partial curve]
11 | COc1cc(CO)cc(-c2cc(CO)cc(OC)c2OC)c1OC | inactive: -0.809% | –
12 | c1cn2c(NC3CCCC3)c(-c3ccc(N4CCOCC4)cc3)nc2cn1 | – | inconclusive: 25.1 µM [fluorescent, side channel, partial curve]
13 | CN1CCN(c2ncc3nc(CCc4ccccc4)c(=O)n(Cc4cccs4)c3n2)CC1 | – | inconclusive: 31.6 µM [inhibitor, single point]
14 | C/C(=N/O)[C@@H]1C[C@H](CC(=O)O)C1(C)C | inactive: -1.9% [at 11.5 µM] | –
15 | COCCOC(=O)c1c(C)oc2ccc(NS(=O)(=O)c3ccccc3)cc12 | inactive: -2.85% | –
16 | COc1ccc(OC)c2c(N3CCN(C)CC3)cc(C(F)(F)F)nc12 | – | inconclusive: 25.1 µM [fluorescent, side channel, single point]
17 | COc1cc(C2C3=C(CC(C)(C)CC3=O)Nc3c2c(=O)[nH]c(=O)n3Cc2ccccc2)ccc1O (stereo not given) | – | inconclusive: 15.8 µM [fluorescent, partial curve]
18 | O=c1ccc2cc3ccoc3cc2o1 | inactive: 2.88% | –
19 | COc1ccc(-c2nc3cnc(Oc4ccccc4)nc3n(CCC#N)c2=O)cc1 | – | inconclusive: 10 µM [fluorescent, side channel, partial curve]
20 | COc1ccc(Oc2ncc3nc(-c4cccc(C#N)c4)c(=O)n(CCC#N)c3n2)cc1 | inactive: -20.5% | –
21 | COc1ncc2nc(-c3ccc(Cl)cc3)c(=O)n(-c3ccccc3)c2n1 | – | inconclusive: 25.1 µM [fluorescent, side channel, single point]
22 | COc1cccc(Cn2c(N)c(C#N)c3nc4ccccc4nc32)c1OC | – | inconclusive: 25.1 µM [inhibitor, partial curve]

Row | SMILES | activity change, negative = inhibition | Potency
23 | COc1cccc(Nc2ncc3nc(-c4cccs4)c(=O)n(Cc4cccs4)c3n2)c1 | – | inconclusive: 12.6 µM [fluorescent, side channel, partial curve]
24 | COc1cccc(Cn2c(=O)c(-c3ccc(Cl)cc3)nc3cnc(N4CCN(C)CC4)nc32)c1 | – | inconclusive: 15.8 µM [fluorescent, side channel, partial curve]
25 | O=C(Nc1ccc2nc(-c3ccco3)[nH]c2c1)c1ccco1 | inactive: -2.82% | –
26 | Cc1ccc(C2C3CSCC=C3C(C#N)=C(N)C2(C#N)C#N)cc1 (stereo not given) | inactive: -28.5% | –
27 | CS(=O)(=O)N1CCC2(CCCN(c3ncccn3)C2)CC1 | inactive: -2.05% | –
28 | CC1CC(C)CN(CC(=O)N2CCc3[nH]c4ccccc4c3C2)C1 (stereo not given) | – | inconclusive: 31.6 µM [fluorescent, side channel, single point]
29 | Nc1c(S(=O)(=O)c2ccccc2)c2nc3ccccc3nc2n1/N=C/c1ccco1 | – | inconclusive: 31.6 µM [inhibitor, single point]
30 | O=C(c1cn(-c2ccccc2)nc1-c1ccc(Cl)s1)N1CCOCC1 | inactive: 0.219% | –
31 | O=C(NCc1ccco1)c1cnn2c(C(F)(F)F)cc(-c3cccs3)nc12 | – | inconclusive: 31.6 µM [fluorescent, side channel, single point]
32 | CCCC(c1nnnn1CCc1ccccc1)N1CCN(C2CCCC2)CC1 (stereo not given) | inactive: 1.06% | –
33 | COc1ccc2c(c1)[nH]c1c(=O)n(CCc3cnc[nH]3)cnc12 | – | inconclusive: 25.1 µM [fluorescent, side channel, single point]
34 | COc1ccc2c(c1)c(C(=O)CN1CCN(C(=O)c3ccco3)CC1)c(C)n2C | inactive: -1.11% | –
35 | COC(=O)c1ccc(C(=O)OC)c(NS(=O)(=O)c2ccc(NC(C)=O)cc2)c1 | – | inconclusive: 15.8 µM [inhibitor, partial curve]
36 | N#CC1=C(N)C(C#N)(C#N)C(c2ccc[nH]2)C2CCCC=C12 (stereo not given) | – | inconclusive: 25.1 µM [inhibitor, partial curve]
37 | O=c1oc2c3c4c(cc2c2c1CCC2)OCCN4CCC3 | – | inconclusive: 3.98 µM [fluorescent, side channel, partial curve]
38 | CCN(CC)c1nc2ccccc2nc1C(C#N)C(=O)NCCCOC (stereo not given) | – | inconclusive: 25.1 µM [fluorescent, partial curve]
39 | CN1Cc2sc(N)c(C#N)c2CC1(C)C | – | inconclusive: 15.8 µM [fluorescent, side channel, partial curve]
40 | Cc1nc2cnc(N(C)C)nc2n(-c2ccccc2)c1=O | – | inconclusive: 20 µM [fluorescent, side channel, partial curve]
41 | N#Cc1cc2cc3c(cc2nc1N1CCOCC1)OCO3 | – | inconclusive: 7.94 µM [fluorescent, partial curve]
42 | COc1ncc2nc(-c3cn(C)c4ccccc34)c(=O)n(-c3ccccc3)c2n1 | – | inconclusive: 2.51 µM [fluorescent, full curve]
43 | CCN(CC)c1ccc2cc(-c3nc4ccccc4n3C)c(=O)oc2c1 | – | inconclusive: 2 µM [fluorescent, side channel, full curve]
44 | N#CC(C(=O)Nc1ccc(Cl)cc1)=C1Nc2ccccc2N1 | inactive: -5.91% | –

Row | SMILES | activity change, negative = inhibition | Potency
45 | O=C(CSc1n[nH]c(=O)n1C1CC1)Nc1cc(Cl)ccc1Oc1ccccc1 | inactive: -2.09% | –
46 | C[C@@]1(C(=O)O)NCCc2cc(O)c(O)cc21 | – | inconclusive: 12.6 µM [fluorescent, side channel, partial curve]
47 | CC1CCCC(NC(=O)CSc2nnc(N)s2)C1C (stereo not given) | inconclusive: -51.6% [inhibitor] [at 0.00368 µM] | –
48 | COCCN(CCOC)C(=O)c1cc2c(=O)n3ccccc3nc2s1 | – | inconclusive: 15.8 µM [fluorescent, side channel, partial curve]
49 | COCCNc1nc(-c2ccc(C(=O)N(C)C)cc2)nc2ccccc12 | – | inconclusive: 25.1 µM [inhibitor, single point]
50 | Cc1ccc(S(=O)(=O)Nc2ccc(O)c(C(=O)O)c2)c(C)c1 | inactive: 1.58% | –
51 | CCN1C(=O)/C(=C2/Sc3ccccc3N2CCCS(=O)(=O)O)SC1=S | – | inconclusive: 25.1 µM [inhibitor, partial curve]
52 | Cc1cc(C(=O)CN2C(=O)c3ccccc3C2=O)c(C)n1Cc1cccs1 | inactive: -2.69% | –
53 | COCCn1c(=O)c(-c2ccc(F)cc2)nc2cnc(Nc3cccc(OC)c3)nc21 | – | inconclusive: 15.8 µM [fluorescent, side channel, partial curve]
54 | CCCCCOc1ccc(CN2CCOCC2)cc1Cl | inactive: -0.407% | –
55 | Nc1ncnc2c1ncn2C1CC(O)C(CO)O1 (stereo not given) | – | inactive
56 | CCOCCOC(=O)C1=C(C)NC2=C(C(=O)CC(c3cccs3)C2)C1c1ccsc1 (stereo not given) | – | inconclusive: 25.1 µM [fluorescent, side channel, single point]
57 | O=C(Nc1c(-c2ccccc2)nc2sccn12)c1ccccc1 | inactive: 0.324% | –
58 | CCOC(=O)C1C(=O)C(C(=O)OCC)C(c2cccnc2)NC1c1cccnc1 (stereo not given) | – | inconclusive: 25.1 µM [fluorescent, single point]
59 | C[C@@]12C=CC(=O)C=C1CC[C@@H]1C2=CC[C@]2(C)[C@@H]1CC[C@H]2C(=O)CN1CCN(c2cc(N3CCCC3)nc(N3CCCC3)n2)CC1 | inactive: 0.38% | –
60 | O=C(Cc1cc(=O)oc2cc(O)ccc12)NCC1CCC(C(=O)O)CC1 (stereo not given) | – | inconclusive: 12.6 µM [fluorescent, side channel, partial curve]
61 | Nc1c(S(=O)(=O)c2cccs2)c2nc3ccccc3nc2n1Cc1cccs1 | – | inconclusive: 25.1 µM [fluorescent, partial curve]
62 | COc1cccc(Nc2ncc3nc(CCc4ccccc4)c(=O)n(C4CC4)c3n2)c1 | – | inconclusive: 3.16 µM [fluorescent, full curve]
63 | N#CC1(C#N)C2=C(CCCC2)NC(c2ccccc2)C1(C#N)C#N (stereo not given) | – | inconclusive: 31.6 µM [fluorescent, side channel, single point]
64 | NC(=O)c1cccc2c3c([nH]c12)CCCC3 | – | inconclusive: 25.1 µM [fluorescent, side channel, single point]
65 | Nc1c(C(=O)NCCN2CCOCC2)c2nc3ccccc3nc2n1CCc1ccccc1F | – | inconclusive: 12.6 µM [fluorescent, side channel, partial curve]
